# The source gives no read counts; variants with many changes may rest on few reads.
# B1: LINE1-mini (parent)
# chain: GGCAGAGCUCAACACAGCGUGGCAAAGUGGCUGUGGCUAGACUGCC
# Variants of: B1
# Assay: self-cleavage, relative activity (ratio to wild type); higher = more cleavage; in vitro, sequencing; the parent is a self-cleaving ribozyme
row,Variant,self-cleavage
1,GGCAGAGCUCAACACAGCGUGGCAAGGUGGGAGUGGCUAGACUGCC [A26G C31G U32A],0.06
2,GGCAGAGCUCAACACAGCGUGGCAUAGCGGCUGUGGCUAGUCAGCC [A25U U28C A41U U43A],0.03
3,GGCAGAGCUCAACACAGCGUGGCUAAGUGGCUGCGCCUAGACUGCC [A24U U34C G36C],0.06
4,GGCAGAGCUCAACACAGCGUGGCAGAGUGGCUGUCGCUAGACUGCA [A25G G35C C46A],0.19
5,GGCAGAGCUCAACACAGCGUGGCAGAGGGGCUGUGGCUAGACUGAC [A25G U28G C45A],0.22
6,GGCAGAGCUCAACACAGCGUGGCAGAGUGGUUGUGGCUUGACUGCC [A25G C31U A39U],0.05
7,GGCAGAGCUCAACACAGCGUGGCAACGUGGAUAUGGUUAGACUGCC [A26C C31A G33A C37U],0.02
8,GGCAGAGCUCAACACAGCGUGGCAACGUGGCUCUGACUAGACUGCC [A26C G33C G36A],0.04
9,GGCAGAGCUCAACACAGCGUGGCAGAGUUGCUGUGGAGAGACUGCC [A25G G29U C37A U38G],0.01
10,GGCAGAGCUCAACACAGCGUGGCACAGUGGCUGAGGCUAGAAUGCC [A25C U34A C42A],0.08
11,GGCAGAGCUCAACACAGCGUGGCACAGUGGCUGUGUCUAUACUGCC [A25C G36U G40U],0.05
12,GGCAGAGCUCAACACAGCGUGGCAACGGGGCUGUGGCUAUACUUCC [A26C U28G G40U G44U],0.11
13,GGCAGAGCUCAACACAGCGUGGCAAGGUCGCUGUGGCUAGCCUGCC [A26G G29C A41C],0.03
14,GGCAGAGCUCAACACAGCGUGGCACAGUGGCUGUGGCUAGGCUUCC [A25C A41G G44U],0.08
15,GGCAGAGCUCAACACAGCGUGGCAUAGGGGCUGUGGUUAGACUGUC [A25U U28G C37U C45U],0.01
16,GGCAGAGCUCAACACAGCGUGGCUAAGUGGCUGGGGCUAAACUGCC [A24U U34G G40A],0.04
17,GGCAGAGCUCAACACAGCGUGGCAACGUGACUGUGGCUAGAGUGCC [A26C G30A C42G],0
18,GGCAGAGCUCAACACAGCGUGGCAUAGUGGCUGUGGCUAGCCUGCA [A25U A41C C46A],0.09
19,GGCAGAGCUCAACACAGCGUGGCAGAGUGGCGGUGGCUAGACUGCA [A25G U32G C46A],0.02

row,Variant,self-cleavage
1,GGCAGAGCUCAACACAGCGUGGCAACGCGGCUGUGGCAAGACUGCC [A26C U28C U38A],0.03
2,GGCAGAGCUCAACACAGCGUGGCAGAUUGGCUGUAGCUAGACUGCC [A25G G27U G35A],0.01
3,GGCAGAGCUCAACACAGCGUGGCAUAGUGGCUGAGGCUAGAGUGCC [A25U U34A C42G],0.07
4,GGCAGAGCUCAACACAGCGUGGCAACGCGGCUAUGGCCAGACUGUC [A26C U28C G33A U38C C45U],0.22
5,GGCAGAGCUCAACACAGCGUGGCAUAGUGGCAGCGGCUAGACUGCC [A25U U32A U34C],0.03
6,GGCAGAGCUCAACACAGCGUGGCAAGGUGACUGUGGCUAGACUUCC [A26G G30A G44U],0.07
7,GGCAGAGCUCAACACAGCGUGGCACAGUGGUUAUGGCUAGACUGCC [A25C C31U G33A],0.04
8,GGCAGAGCUCAACACAGCGUGGCAUAGUGGCUGUGGCAAGGCUGCG [A25U U38A A41G C46G],0.06
9,GGCAGAGCUCAACACAGCGUGGCAACGUGGCUGUGGCUAUACAGGC [A26C G40U U43A C45G],0.03
10,GGCAGAGCUCAACACAGCGUGGCAACGUUGCUGUGGCUAGAGUGCC [A26C G29U C42G],0.03
11,GGCAGAGCUCAACACAGCGUGGCAUAGUGGUUGUGGCUAGACUGGC [A25U C31U C45G],0.07
12,GGCAGAGCUCAACACAGCGUGGCACAUAGGGUGUGGCUAGACUGCC [A25C G27U U28A C31G],0.08
13,GGCAGAGCUCAACACAGCGUGGCAUAGUGGCUGUGGAUAGACUUCC [A25U C37A G44U],0.03
14,GGCAGAGCUCAACACAGCGUGGCACGGUUGCUGUUGCUAGAGUGCC [A25C A26G G29U G35U C42G],0.06
15,GGCAGAGCUCAACACAGCGUGGCAAGGUGGCUGUGGGUAGACUUCC [A26G C37G G44U],0.02
16,GGCAGAGCUCAACACAGCGUGGCACAGUGGCUGUGCCUAGGAUGCC [A25C G36C A41G C42A],0.01
17,GGCAGAGCUCAACACAGCGUGGCAUAGUGGCUUUGUCUAGACUGCC [A25U G33U G36U],0.04
18,GGCAGAGCUCAACACAGCGUGGCAGAUUGGCUGUGGUUAGACUGCC [A25G G27U C37U],0.02
19,GGCAGAGCUCAACACAGCGUGGCAACGUGGCUGUGGCUAGACUACA [A26C G44A C46A],0.06

row,Variant,self-cleavage
1,GGCAGAGCUCAACACAGCGUGGCAGAGUGUCUAUGGCUAGACUGCC [A25G G30U G33A],0
2,GGCAGAGCUCAACACAGCGUGGCAACGUGGCUGUGGGUAGAUUGCC [A26C C37G C42U],0.03
3,GGCAGAGCUCAACACAGCGUGGCAUAGUGGCUGUGGCUGGAGCGCC [A25U A39G C42G U43C],0.01
4,GGCAGAGCUCAACACAGCGUGGCACAGUGGCUGUGGCUAAACGGCC [A25C G40A U43G],0.01
5,GGCAGAGCUCAACACAGCGUGGCACAGUGGUUGUGGUUAGACUGCC [A25C C31U C37U],0.1
6,GGCAGAGCUCAACACAGCGUGGCAUAGUGGGUGGGGCUAGACUUCC [A25U C31G U34G G44U],0.03
7,GGCAGAGCUCAACACAGCGUGGCACAGUGUCUGUGGCUAGACAGCC [A25C G30U U43A],0.06
8,GGCAGAGCUCAACACAGCGUGGCACAGUACCUGUGGCUAGACUGCC [A25C G29A G30C],1.3
9,GGCAGAGCUCAACACAGCGUGGCAGAGUGGCUGGGGCUUGACUGCC [A25G U34G A39U],0.01
10,GGCAGAGCUCAACACAGCGUGGCAACCUGGUUGUGGUUAGACUGCC [A26C G27C C31U C37U],0.03
11,GGCAGAGCUCAACACAGCGUGGCAACGCGGCUGUGGCUAGAUUGCC [A26C U28C C42U],0.72
12,GGCAGAGCUCAACACAGCGUGGCAGAGUAGCUGUGGCUAGACCGCC [A25G G29A U43C],0.06
13,GGCAGAGCUCAACACAGCGUGGCAGAGUGGCUGUGUCUAGACUGCA [A25G G36U C46A],0.03
14,GGCAGAGCUCAACACAGCGUGGCAGAGUGGCUGUGGCUGGAAUGCC [A25G A39G C42A],0
15,GGCAGAGCUCAACACAGCGUGGCUAAGUGGCUGUGGCCAGAAUGCC [A24U U38C C42A],0.07
16,GGCAGAGCUCAACACAGCGUGGCAUAGUGGCUGUGGCGAUACAGCC [A25U U38G G40U U43A],0.06
17,GGCAGAGCUCAACACAGCGUGGCAUAGUGGCCGGGGCUAGCCUGCC [A25U U32C U34G A41C],0.02
18,GGCAGAGCUCAACACAGCGUGGCAUAGUAGCUGUCGUUAGACUGGU [A25U G29A G35C C37U C45G C46U],0.01

# From the RNAGym collection of RNA variant scans (doi:10.7554/elife.90254)
